# According to PubChem BioAssay AID504466 (National Center for Advancing Translational Sciences (NCATS), 2011):
# Out of some 330,000 compounds screened, about 4,200 (1.3%) were called active. Inconclusive results, whose numbers are uncertain, are shown with a selection of clear calls. The call rests on the fitted dose curve; in most records, active means well fitted activation curve with a large enough effect; inconclusive means small, poorly fitted or top-dose-only effect; inactive means no such curve, though single readings can be large or run the other way. Potencies beside an inconclusive call are fits to weak or partial responses and may not hold up.
# Experiment: qHTS screen for small molecules that induce genotoxicity in human embryonic kidney (HEK293T) cells expressing luciferase-tagged ELG1; further: nearly all actives have a fitted effect of over 60% in size; on activity change, positive = activation: % of control where 0% means no effect
# Settings: HEK293T ELG1-luciferase reporter, luminescence, 16 h; series mostly up to 46 µM; activity change, positive = activation: at the top concentration
# In short: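 Reporter readout depends on ELG1 protein level, which increases with genetic stress. After 16 hr compound exposure at 37 °C, luciferase activity was quantified using ONE-Glo.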
# Potency means the concentration at half of the fitted maximal effect; tags describe the fitted curve by direction and shape.
Structure (SMILES),Potency,"activity change, positive = activation"
COC(=O)c1sccc1N/N=C/c1ccc(OC)c(OC)c1OC,"inconclusive: 18.4 µM [activator, partial curve, poor fit]",
COc1ccc(-c2cc3ccc(O)cc3oc2=O)cc1,active: 8.2 µM,
C=CCSc1ncc(C(=O)OCC)c(N)n1,"inconclusive: 20.6 µM [activator, partial curve, poor fit]",
CCOc1ccc(NC(=O)c2cnc3scc(C)n3c2=O)cc1,"inconclusive: 18.4 µM [activator, single point]",
Cc1ccc(NC(=O)CCSc2nnnn2-c2ccc3c(c2)OCO3)cc1C,,inactive: -4.73%
Cc1noc(NC(=O)c2ccccc2)c1C#N,,inactive: 3.83%
COc1ccc(C2=NN(C(C#N)c3ccc(OC)c(OC)c3)C(c3ccccc3)C2)cc1 (stereo not drawn),active: 5.8 µM,
CCOc1cc2[nH]c(=S)n(Cc3ccc(C(=O)NCCCOC)cc3)c(=O)c2cc1OCC,"inconclusive: 29.1 µM [activator, single point]",
O=C(O)c1ccc(-c2nc(-c3ccc(Cl)cc3Cl)cs2)cc1,"inconclusive: 2.59 µM [activator, partial curve, poor fit]",
Cn1ccnc1SCC(=O)c1c[nH]c2ccccc12,active: 10.3 µM,
O=C(CCCN1C(=O)S/C(=C\C=C\c2ccccc2)C1=O)Nc1ccc(O)cc1,"inconclusive: 5.8 µM [activator, full curve, poor fit]",
O=C(Nc1ccc(S(=O)(=O)NC2=NCCCCC2)cc1)c1ccco1,,inactive: 0.519%
CC1CC(=O)c2cnc(NCC3CCCO3)nc2C1 (stereo not drawn),"inconclusive: 25.9 µM [activator, partial curve, poor fit]",
CCN(CC)CCOc1ccc2c(c1)C(=NO)c1cc(OCCN(CC)CC)ccc1-2,"inconclusive: 23.1 µM [activator, partial curve, poor fit]",
CC(=O)Nc1ccc(C(=O)COC(=O)C2CC2)c(F)c1,"inconclusive: 20.6 µM [activator, single point]",
Cc1ccc(C(=O)/C=C/Nc2ccc3c(c2)OCO3)cc1,"inconclusive: 6.51 µM [activator, single point]",
O=C(Nc1cccc([N+](=O)[O-])c1)c1cnccn1,,inactive: 1.16%
COc1ccc(/C=N/NC(=O)c2cnccn2)cc1O,"inconclusive: 16.4 µM [activator, partial curve]",
CCOc1ccc2[nH]c(=O)c(C(c3nnnn3Cc3ccco3)N3CCN(C)CC3)cc2c1 (stereo not drawn),"inconclusive: 2.91 µM [activator, partial curve, poor fit]",
Cc1ccccc1C(=O)Nc1cccc(-c2ccc3nncn3n2)c1,,inactive: 0.0608%
OCCN1CCN(C(c2cccs2)c2ccc3cccnc3c2O)CC1 (stereo not drawn),"inconclusive: 29.1 µM [activator, partial curve, poor fit]",
CCN1CCN(c2ccc(NC(=O)c3ccco3)cc2Cl)CC1,"inconclusive: 9.2 µM [activator, partial curve]",
C=CCSc1nnc2c(n1)[nH]c1c(C)cccc12,"inconclusive: 14.6 µM [activator, partial curve]",
Cc1cc2oc(=O)cc(CN3CCC(C)CC3)c2cc1Cl,"inconclusive: 25.9 µM [activator, partial curve, poor fit]",
Nc1ccc(NC(=O)c2ccc(C(=O)Nc3ccc(N)cc3)cc2)cc1,,inactive: -0.912%

Structure (SMILES),Potency,"activity change, positive = activation"
COC(=O)c1ccc(-c2ccc(F)cc2)nc1C,"inconclusive: 10.3 µM [activator, partial curve]",
O=C(CSc1nnc(-c2ccccn2)n1Cc1ccccc1)NC1CCCC1,,inactive: -3.33%
Cc1ccc(CNC(=O)CSc2nnc3n2CCCCC3)cc1,,inactive: 0.908%
CCc1nc2sc3c(c2c(=S)[nH]1)CC(C)(C)OC3,,inactive: -0.457%
CCC1Oc2ccccc2C(=O)N(CC(=O)c2ccc3c(c2)OCCO3)C1=O (stereo not drawn),"inconclusive: 18.3 µM [activator, single point]",
CCn1c(SCC(=O)c2ccc(O)c(O)c2)nnc1-c1ccccc1,active: 20.6 µM,
CCc1ccc(C(=O)COC(=O)c2nn(C)c(=O)c3ccccc23)cc1,,inactive: -0.0109%
Cn1nc(C(=O)NNC(=O)CCc2ccccc2Cl)c2ccccc2c1=O,,inactive: 0.79%
Cc1cc(Nc2nc3ccccc3[nH]c2=O)n(-c2ccccc2)n1,active: 20.6 µM,
Cc1ccccc1-n1c(C)cc(/C=N/NC(=O)c2ccc(CN3CCOCC3)cc2)c1C,"inconclusive: 16.4 µM [activator, partial curve]",
CC(=O)Nc1ccc(/C=N/N2CCCCC2)cc1,"inconclusive: 20.6 µM [activator, partial curve]",
O=C(NC(=S)Nc1ccccn1)c1ccco1,"inconclusive: 16.4 µM [activator, partial curve]",
O=C(O)CCCC(=O)Nc1ccc(OCc2nc3ccccc3s2)cc1,"inconclusive: 20.6 µM [activator, partial curve, poor fit]",
Cc1ccccc1-c1cc2c(nn1)-c1ccccc1C2=O,"inconclusive: 4.11 µM [activator, single point]",
O=C(O)CCn1cc(/C=C2\SC(=S)NC2=O)c(-c2ccccc2)n1,,inactive: 0.745%
O=C(Nc1nc2c(s1)CCCC2)C1COc2ccccc2O1 (stereo not drawn),active: 0.58 µM,
Cn1c(=O)c2c(SCc3ccccc3)nc(-c3ccco3)nc2n(C)c1=O,"inconclusive: 18.4 µM [activator, partial curve, poor fit]",
O=C(CCSc1nc(-c2ccco2)cc(C(F)(F)F)n1)NCCc1ccccc1,"inconclusive: 23.1 µM [activator, partial curve, poor fit]",
Cc1c(N=C2NN=C(c3c[nH]c4ccccc34)CS2)c(=O)n(-c2ccccc2)n1C,,inactive: -3.43%
C(=C\n1nnc2ccccc21)/c1ccc[nH]1,"inconclusive: 20.6 µM [activator, partial curve, poor fit]",
O=C(NCCc1ccccc1)c1ccc(-n2cnnn2)cc1,"inconclusive: 16.4 µM [activator, single point]",
Clc1cnc(N/N=C/c2ccncc2)c(Cl)c1,"inconclusive: 16.4 µM [activator, partial curve, poor fit]",
O=C(Nc1nc2ccccc2[nH]1)c1cc(F)cc(F)c1,"inconclusive: 5.8 µM [activator, full curve, poor fit]",
CN(C(=O)C1CCCO1)c1nnc(-c2ccccn2)s1 (stereo not drawn),"inconclusive: 29.1 µM [activator, partial curve, poor fit]",
C[C@H](CO)N1C[C@H](C)[C@@H](CN(C)C(=O)NC2CCCCC2)Oc2ccc(NC(=O)CCC(F)(F)F)cc2C1=O,,inactive: 2.09%

Structure (SMILES),Potency,"activity change, positive = activation"
COc1ccc(C(=O)OCC(=O)NC2CCCCCCC2)cc1OC,,inactive: -1.54%
CC(=O)c1sc2nc(-c3cccs3)ccc2c1N,active: 11.6 µM,
O=C(Nc1ccnn1C1CCN(C(=O)c2cccc(Cl)c2)CC1)C1CCOC1 (stereo not drawn),,inactive: 11%
O=[N+]([O-])c1ccc(Cl)c(NC2=NCCCCC2)c1,,inactive: -0.139%
CCn1c(CNC(=O)c2cccc(C)c2)nnc1SCC(=O)Nc1nnc(C)s1,,inactive: 2.97%
Cc1cc(OCC(=O)Nc2ncn[nH]2)ccc1Cl,"inconclusive: 23.1 µM [activator, partial curve, poor fit]",
CCOC(=O)c1cccc(COC(=O)c2cccc(-c3nnc(-c4ccccc4)o3)c2)c1,"inconclusive: 2.59 µM [activator, partial curve, poor fit]",
COc1ccc(Nc2cc(Cl)nc(N)n2)cc1,"inconclusive: 20.6 µM [activator, partial curve, poor fit]",
Cc1ccc(Nc2nc(CSc3nnnn3C)cs2)cc1,"inconclusive: 6.51 µM [activator, partial curve, poor fit]",
Cc1ccc(C(=O)NNC(=O)c2ccco2)cc1,"inconclusive: 18.4 µM [activator, single point]",
O=C(Nc1ccc2ccccc2c1)c1ccc(Cl)cc1,active: 0.92 µM,
O=C(CCNS(=O)(=O)c1c(Cl)cccc1Cl)OCC(=O)c1ccccc1,,inactive: -2.22%
CC(C)CNC(=O)c1coc(=O)c(Br)c1,"inconclusive: 20.6 µM [activator, single point]",
O=C(CCSc1ccccc1)NC1CCCC1,"inconclusive: 29.1 µM [activator, single point]",
COCc1nc(-c2ccc(-c3ccc(OC)cc3)nc2OC)no1,,inactive: 11.8%
COc1cc(NS(=O)(=O)c2ccc(NC(=O)C34CC5CC(CC(C5)C3)C4)cc2)ncn1,"inconclusive: 16.4 µM [activator, partial curve, poor fit]",
Cc1nc(NCc2ccc3c(c2)OCO3)c2nnn(Cc3ccccc3)c2n1,"inconclusive: 32.6 µM [activator, partial curve, poor fit]",
COc1ccc(C(=O)Nc2ccccc2C(=O)N(Cc2ccco2)C(C(N)=O)C(C)C)cc1 (stereo not drawn),"inconclusive: 23.1 µM [activator, partial curve, poor fit]",
CCn1c(SCC(=O)Nc2ccc(C(C)=O)cc2)nc2nc3c(cc2c1=O)CCCC3,"inconclusive: 13 µM [activator, partial curve]",
c1c2c(cc3sc(N4CCOCC4)nc13)OCO2,"inconclusive: 2.59 µM [activator, full curve]",
Cc1ccc(/C=C2\SC(=S)N(CCC(=O)NNC(=O)c3ccccc3O)C2=O)cc1,"inconclusive: 23.1 µM [activator, partial curve]",
Cc1ccc2c(c1)C(c1ccccc1)N(C(=O)c1c(F)cccc1Cl)CC(=O)N2 (stereo not drawn),,inactive: -8.87%
CNC(=S)N/N=C/c1ccc(-c2cccc(C(=O)O)c2)o1,"inconclusive: 18.3 µM [activator, partial curve]",
